The whole screen tested about 220,000 compounds, of which about 5,700 (2.6%) were called active. The inconclusive results got no clear call from the source; some entries with a clear call stand among them for comparison. Calls come from the whole dose curve; as a rule, active = well fitted inhibition curve with a large enough effect; inconclusive = small, poorly fitted or top-dose-only effect; inactive = no such curve, though single readings can be large or run the other way. Potencies of inconclusive entries are doubtful fits and often do not repeat.
What follows are molecules tested against Lysine-specific demethylase 5B (Homo sapiens) (UniProt Q9UGL1) (assay: Primary screen for KDM5B Histone Demethylases FDH-coupled qHTS). Conditions: FDH-coupled NADH fluorescence (FDH is formaldehyde dehydrogenase); series mostly up to 57.7 µM.
Method in brief: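 qHTS format, multiple compound concentrations. Buffer 50 mM HEPES pH 7.5/0.01% Tween-20; 200 nM KDM5BΔAP final; 10 min compound preincubation; substrate-mix levels 12.5 µM peptide, 25 µM α-KG, 0.25 mM NAD⁺; 30 min RT; ΔRFU.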
Note: nearly all actives have a fitted effect of over 70% in size.
Potency is the fitted concentration of half-maximal effect; tags give direction and shape of the fitted curve.

Chain of UniProt Q9UGL1 (Q9UGL1 whole entry, looked up): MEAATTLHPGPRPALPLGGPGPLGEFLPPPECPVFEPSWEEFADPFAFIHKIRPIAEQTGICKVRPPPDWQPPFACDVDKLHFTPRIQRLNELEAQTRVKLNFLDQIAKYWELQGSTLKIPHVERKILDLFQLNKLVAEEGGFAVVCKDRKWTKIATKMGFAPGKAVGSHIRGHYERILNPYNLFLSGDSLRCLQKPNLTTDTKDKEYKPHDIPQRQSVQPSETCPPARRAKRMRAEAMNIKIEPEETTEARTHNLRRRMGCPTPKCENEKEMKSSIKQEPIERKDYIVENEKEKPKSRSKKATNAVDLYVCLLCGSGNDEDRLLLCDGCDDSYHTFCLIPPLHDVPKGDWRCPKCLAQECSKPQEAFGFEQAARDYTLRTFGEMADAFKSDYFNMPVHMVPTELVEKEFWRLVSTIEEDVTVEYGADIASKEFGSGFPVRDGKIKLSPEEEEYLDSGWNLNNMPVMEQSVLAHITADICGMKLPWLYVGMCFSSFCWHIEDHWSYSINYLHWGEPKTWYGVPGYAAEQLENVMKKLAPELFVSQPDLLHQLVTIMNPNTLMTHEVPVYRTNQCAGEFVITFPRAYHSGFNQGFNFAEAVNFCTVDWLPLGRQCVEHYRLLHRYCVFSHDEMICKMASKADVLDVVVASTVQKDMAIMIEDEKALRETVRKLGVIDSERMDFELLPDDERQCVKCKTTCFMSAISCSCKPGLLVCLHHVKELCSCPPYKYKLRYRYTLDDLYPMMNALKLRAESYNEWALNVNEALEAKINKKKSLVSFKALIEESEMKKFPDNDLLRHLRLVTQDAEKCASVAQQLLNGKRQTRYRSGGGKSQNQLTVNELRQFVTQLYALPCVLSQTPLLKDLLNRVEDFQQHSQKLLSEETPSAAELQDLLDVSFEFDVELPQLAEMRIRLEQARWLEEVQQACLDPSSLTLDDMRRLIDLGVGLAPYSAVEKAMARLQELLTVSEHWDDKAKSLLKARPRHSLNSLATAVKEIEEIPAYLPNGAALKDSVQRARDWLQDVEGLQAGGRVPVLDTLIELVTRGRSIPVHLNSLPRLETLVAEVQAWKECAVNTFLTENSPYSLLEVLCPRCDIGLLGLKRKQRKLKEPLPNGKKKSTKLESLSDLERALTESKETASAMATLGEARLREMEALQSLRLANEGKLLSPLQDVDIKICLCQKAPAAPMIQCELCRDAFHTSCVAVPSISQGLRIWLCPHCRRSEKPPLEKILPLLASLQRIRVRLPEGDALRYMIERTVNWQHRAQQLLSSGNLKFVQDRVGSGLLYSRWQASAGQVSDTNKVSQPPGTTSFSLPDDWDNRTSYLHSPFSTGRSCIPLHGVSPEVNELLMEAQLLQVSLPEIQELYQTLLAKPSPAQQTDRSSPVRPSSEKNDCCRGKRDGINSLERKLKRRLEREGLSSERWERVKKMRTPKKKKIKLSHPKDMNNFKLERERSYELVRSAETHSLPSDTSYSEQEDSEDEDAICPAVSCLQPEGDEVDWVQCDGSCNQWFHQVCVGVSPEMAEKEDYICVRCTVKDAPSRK

Compound	Potency
CCN1c2cc(C(=O)Nc3cc(C)cc(C)c3)ccc2C(=O)N2CCCC21 (stereo unspecified)	inconclusive: 22.4 µM [inhibitor, partial curve, poor fit]
CC1=C(C(=O)NCc2ccccc2)C(c2ccccc2)NC(=S)N1 (stereo unspecified)	inactive
COc1ccc(-c2nc(-c3nnn4c3COC(c3ccc(Cl)cc3)C4)no2)cc1 (stereo unspecified)	inactive
CN(C)CCCNC(=O)c1cn2ccnc(-c3ccc(F)cc3)c2n1	inconclusive: 17.8 µM [inhibitor, partial curve, poor fit]
CC(C)N(CC1CC1)C(=O)CC1COc2ccc(C(=O)N(C)C)cc2N1C (stereo unspecified)	inconclusive: 8.91 µM [inhibitor, full curve, poor fit]
CN(C)C[C@@H]1CN(c2ncccn2)C[C@H]1NC(=O)NCCc1ccccc1	inconclusive: 22.4 µM [inhibitor, partial curve, poor fit]
CC(=O)c1ccc(NC(=O)N[C@H]2CO[C@H]3[C@@H]2OC[C@@H]3Nc2nccc(-c3ccco3)n2)cc1	inconclusive: 35.5 µM [inhibitor, partial curve, poor fit]
CCCC(NC(=O)Cn1nnn(-c2ccccc2)c1=O)c1ccccc1 (stereo unspecified)	inactive
Cc1ccc(C(=O)Nc2ccccc2NS(=O)(=O)c2cccs2)cc1[N+](=O)[O-]	inconclusive: 17.8 µM [inhibitor, partial curve, poor fit]
C/C(=N\Nc1ccc(Cl)cc1C)c1cc2ccccc2s1	inactive
O=C(O)CC/C(=C/c1cccc(Oc2ccc(Cl)cc2)c1)c1nc2ccccc2s1	inactive
COc1ccccc1CNC(=O)c1cc2cccc3c2n1CCS3	inconclusive: 31.6 µM [inhibitor, partial curve, poor fit]
O=C(c1ccc(C(F)(F)F)cc1)N1CCC2(CC(c3cccc(C(F)(F)F)c3)=NO2)C1 (stereo unspecified)	inconclusive: 3.55 µM [inhibitor, full curve, poor fit]
O=C(CN1CCN(C2CCS(=O)(=O)C2)CC1)N1CC=C(c2ccccc2)CC1 (stereo unspecified)	inactive
Cc1nc2c(c(=O)[nH]1)C(c1cc(F)cc(F)c1)CC(=O)N2 (stereo unspecified)	inactive
COc1cc(/C=C/c2nc3ccccc3s2)cc(OC)c1OC	inconclusive: 17.8 µM [inhibitor, partial curve, poor fit]
Cc1ccc(S(=O)(=O)c2nnn3c2nc(N(C)Cc2ccccc2)c2cc(Cl)ccc23)cc1C	inconclusive: 15.8 µM [inhibitor, single point]
COCCNC(=O)c1ccc2c(c1)N(C)C(CC(=O)NCC(C)(C)C)CO2 (stereo unspecified)	active: 28.2 µM
COc1ccccc1/C=C/C=N/n1c(-c2ccco2)n[nH]c1=S	inconclusive: 39.8 µM [inhibitor, single point]
Cc1ccc(NC(=O)Cn2c(N3CCCCC3)nc(C)c(C)c2=O)cc1	inactive
COc1cccc(C(=O)N2CCN(c3oc(-c4cccs4)nc3C#N)CC2)c1	inconclusive: 7.08 µM [inhibitor, full curve, poor fit]
O=c1oc2ccccc2c(NCc2ccccc2)c1NS(=O)(=O)c1cccc(F)c1	inactive
Cc1c(C(=O)N2CCCC2)oc2c1-c1nn(CC(=O)NCc3ccccc3F)cc1CC2	inconclusive: 8.91 µM [inhibitor, partial curve, poor fit]

Compound	Potency
Cc1ccc(C(=O)C(C)Oc2ccc(C#N)cc2)cc1C (stereo unspecified)	inactive
CN(C)c1ccc(C(=O)N[C@H]2CO[C@H]3[C@@H]2OC[C@@H]3n2nnnc2Oc2cccc(N(C)C)c2)cc1	inactive
Cc1nc2cc(NS(=O)(=O)c3ccc(C(C)(C)C)cc3)ccc2o1	inactive
COCc1cccc(C(=O)NCCC(C)C)c1	inactive
O=c1[nH]c2cc3c(cc2cc1CN1CC[C@H](O)C1)OCO3	active: 28.2 µM
CCOC(=O)c1c(C)[nH]c(CCC(=O)NCc2cc(Br)ccc2OC)c1C	inconclusive: 1.26 µM [inhibitor, full curve, poor fit]
O=C(NCc1ccccc1)Nc1ccc2oc(C3CC3)nc2c1	inactive
CCN(CC)CC(=O)N1CCC(C(=O)Nc2ccc(-c3nc4ccccc4o3)cc2)CC1	active: 28.2 µM
COc1ccc(OC)c(NC(=O)c2ccc3c(c2)N(C)C2CCCCN2C3=O)c1 (stereo unspecified)	inactive
Cc1ccc(-c2nc(Cn3c(=O)c(C#N)cn(C4CC4)c3=O)co2)c(C)c1	inactive
O=C(CSc1nc(-c2ccco2)nc2ccccc12)NCCc1ccccc1	inconclusive: 14.1 µM [inhibitor, partial curve, poor fit]
Cc1ccc(C)c(-c2csc(Nc3ccc(S(=O)(=O)Nc4nc(C)cc(C)n4)cc3)n2)c1	inconclusive: 28.2 µM [inhibitor, single point]
COc1nc2c(cc1CNC(=O)CN1CCOCC1)C(=O)N(C1CCCC1)C2	inactive
COCCN1Cc2ccc(Nc3ccc(OC)cc3)nc2C(C)(C(=O)Nc2ccccc2)C1 (stereo unspecified)	active: 31.6 µM
Cc1cccc(-c2cc(=O)c3cc(NC(=O)c4ccccc4C)ccc3o2)c1	inactive
O=S(=O)(c1ccc(F)cc1)N1CCCC(Cc2noc(-c3cccnc3)n2)C1 (stereo unspecified)	inactive
COc1ccc2[nH]c3c(c2c1)CCN(C)C31CCN(C(=O)c2ccc(OC)nc2)CC1	inactive
CCOc1ccc2nc(N(Cc3cccnc3)C(=O)c3ccco3)sc2c1	inconclusive: 28.2 µM [inhibitor, single point]
Cc1ccc(C(=O)NNC(=O)CNS(=O)(=O)/C=C/c2ccccc2)cc1	inactive
O=C(O)c1ccc(C(c2c[nH]c3ccccc23)c2c[nH]c3ccccc23)cc1	inconclusive: 39.8 µM [inhibitor, single point]
CN1C[C@@H](NS(=O)(=O)c2ccc(C#N)cc2)C[C@H]1c1nc(-c2ccncc2)no1	inconclusive: 39.8 µM [inhibitor, partial curve, poor fit]
CNC(=O)/C(=C/c1cc2ccc(OC)cc2nc1Cl)NC(=O)c1ccccc1	inconclusive: 22.4 µM [inhibitor, single point]
Cc1nn2c(c1-c1ccccc1C(C)C)N(CCC(C)C)CCC2	active: 17.8 µM

Reference: PubChem BioAssay AID1347165 (National Center for Advancing Translational Sciences (NCATS), 2019)
